The text below walks through data of PMC9911399, “Two distinct binding modes provide the RNA-binding protein RbFox with extraordinary sequence specificity”.

First the molecules themselves.
B1: UGCUGGA (DNA:RNA)
RNA: GGGAGACCGGAAUUCAGAUUGUCCUGCUGGAUUAAAUCCCGUCGUAGCCACCA
DNA 1: CAATCTGAATTCCGGTCTCCC
DNA 2: TGGTGGCTACGACGGGATT
B2: ACCGGAA (DNA:RNA)
RNA: B1 RNA with U25A, G26C, U28G, G30A
DNA 1: CAATCTGAATTCCGGTCTCCC
DNA 2: TGGTGGCTACGACGGGATT
B3: UGAUUGG (DNA:RNA)
RNA: B1 RNA with C27A, G29U, A31G
DNA 1: CAATCTGAATTCCGGTCTCCC
DNA 2: TGGTGGCTACGACGGGATT
B4: CACCCUA (DNA:RNA)
RNA: B1 RNA with U25C, G26A, U28C, G29C, G30U
DNA 1: CAATCTGAATTCCGGTCTCCC
DNA 2: TGGTGGCTACGACGGGATT
B5: UUAAGAU (DNA:RNA)
RNA: B1 RNA with G26U, C27A, U28A, G30A, A31U
DNA 1: CAATCTGAATTCCGGTCTCCC
DNA 2: TGGTGGCTACGACGGGATT
B6: AUCACAG (DNA:RNA)
RNA: B1 RNA with U25A, G26U, U28A, G29C, G30A, A31G
DNA 1: CAATCTGAATTCCGGTCTCCC
DNA 2: TGGTGGCTACGACGGGATT
B7: CAGCUAU (DNA:RNA)
RNA: GGGAGACCGGAAUUCAGAUUGUCCCAGCUAUUUAAAUCCCGUCGUAGCCACCA
DNA 1: CAATCTGAATTCCGGTCTCCC
DNA 2: TGGTGGCTACGACGGGATT
B8: AGCGUUU (DNA:RNA)
RNA: B7 RNA with C25A, A26G, G27C, C28G, A30U
DNA 1: CAATCTGAATTCCGGTCTCCC
DNA 2: TGGTGGCTACGACGGGATT
B9: UAAGACG (DNA:RNA)
RNA: B7 RNA with C25U, G27A, C28G, U29A, A30C, U31G
DNA 1: CAATCTGAATTCCGGTCTCCC
DNA 2: TGGTGGCTACGACGGGATT
B10: AAAACAU (DNA:RNA)
RNA: B7 RNA with C25A, G27A, C28A, U29C
DNA 1: CAATCTGAATTCCGGTCTCCC
DNA 2: TGGTGGCTACGACGGGATT
B11: CACUGGA (DNA:RNA)
RNA: B1 RNA with U25C, G26A
DNA 1: CAATCTGAATTCCGGTCTCCC
DNA 2: TGGTGGCTACGACGGGATT
B12: UAUAUCA (DNA:RNA)
RNA: B7 RNA with C25U, G27U, C28A, A30C, U31A
DNA 1: CAATCTGAATTCCGGTCTCCC
DNA 2: TGGTGGCTACGACGGGATT
B13: AACCAGG (DNA:RNA)
RNA: B7 RNA with C25A, G27C, U29A, A30G, U31G
DNA 1: CAATCTGAATTCCGGTCTCCC
DNA 2: TGGTGGCTACGACGGGATT
B14: UAUUCCU (DNA:RNA)
RNA: B7 RNA with C25U, G27U, C28U, U29C, A30C
DNA 1: CAATCTGAATTCCGGTCTCCC
DNA 2: TGGTGGCTACGACGGGATT
B15: CACACUA (DNA:RNA)
RNA: B7 RNA with G27C, C28A, U29C, A30U, U31A
DNA 1: CAATCTGAATTCCGGTCTCCC
DNA 2: TGGTGGCTACGACGGGATT
B16: UGACUGG (DNA:RNA)
RNA: B1 RNA with C27A, U28C, G29U, A31G
DNA 1: CAATCTGAATTCCGGTCTCCC
DNA 2: TGGTGGCTACGACGGGATT
B17: CAGCGGC (DNA:RNA)
RNA: B7 RNA with U29G, A30G, U31C
DNA 1: CAATCTGAATTCCGGTCTCCC
DNA 2: TGGTGGCTACGACGGGATT
B18: CACGAAA (DNA:RNA)
RNA: B7 RNA with G27C, C28G, U29A, U31A
DNA 1: CAATCTGAATTCCGGTCTCCC
DNA 2: TGGTGGCTACGACGGGATT
B19: GGCGAGC (DNA:RNA)
RNA: B1 RNA with U25G, U28G, G29A, A31C
DNA 1: CAATCTGAATTCCGGTCTCCC
DNA 2: TGGTGGCTACGACGGGATT
B20: UAAUACC (DNA:RNA)
RNA: B1 RNA with G26A, C27A, G29A, G30C, A31C
DNA 1: CAATCTGAATTCCGGTCTCCC
DNA 2: TGGTGGCTACGACGGGATT

Positions count from the first letter of the chain named. The list shows a part of the results.

The experiment has as its target T1, RBFOX1 RRM (Homo sapiens, UniProt Q9NWB1 109-208).
T1 sequence: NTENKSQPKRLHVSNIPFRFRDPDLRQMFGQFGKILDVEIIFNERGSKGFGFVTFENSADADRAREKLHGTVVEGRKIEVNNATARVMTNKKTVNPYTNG
In words: EMSA; HiTS-Eq, 1 nM pool, 10 min; buffer printed only for the single-RNA assays: 10 mM Tris pH 7.5, 150 mM NaCl, 3.4 mM EDTA, 0.001% NP-40, 30 C. The following applies: tags: His6 N-terminal (pET28a); label: 5' 32P. In outline: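 Purified RbFox RRM (wild type or mutant) was equilibrated for 10 min in 50 µL with 1 nM of a 5′-radiolabelled pool of RNA with 7 randomized nucleotides, its flanks annealed to DNA oligonucleotides, across increasing protein concentrations. Free RNA was separated by 8% native PAGE, excised, reverse-transcribed, PCR-barcoded and sequenced on an Illumina HiSeq 2500. Relative association constants came from read-count changes of each variant against the control reaction, normalised to the cognate motif.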
For B1, the binding signal is 0.0106 KA relative to UGCAUGU. Consider B2, for which the binding signal was 0.00123 KA relative to UGCAUGU. The result for B3 reads 0.0223 KA relative to UGCAUGU; that for B4, 0.000228 KA relative to UGCAUGU.

As for B5, the binding signal is 0.0109 KA relative to UGCAUGU. Turning to B6, the binding signal was 0.0025 KA relative to UGCAUGU. The result for B7 reads 0.00303 KA relative to UGCAUGU.

B8: the binding signal was 0.00998 KA relative to UGCAUGU.

Regarding B9, the binding signal was 0.00786 KA relative to UGCAUGU.

On to B10, for which the binding signal is 0.00106 KA relative to UGCAUGU.

Turning to B11, the binding signal was 0.00963 KA relative to UGCAUGU. The result for B12 reads 0.00945 KA relative to UGCAUGU; that for B13, 0.00428 KA relative to UGCAUGU; that for B14, 0.00296 KA relative to UGCAUGU. On to B15, for which the binding signal is 0.000688 KA relative to UGCAUGU. Take B16: the binding signal was 0.0284 KA relative to UGCAUGU.

B17: the binding signal is 0.00856 KA relative to UGCAUGU. In the case of B18, the binding signal was 0.00287 KA relative to UGCAUGU. For B19, the binding signal was 0.0238 KA relative to UGCAUGU. Turning to B20, the binding signal was 0.00205 KA relative to UGCAUGU.
